Source: the antibiotic and cytotoxicity screens of Wong et al. (2023)
The other results are listed elsewhere or left out.

Test system: S. aureus RN4220
Experiment: growth inhibition call (relative growth <= 0.2)
Details: 50 µM

Growth inhibition call, inactive:
CC(C)NC(=O)N[C@H]1CCCCNC1=O
CC(C)NC(=O)N(C)C[C@@H]1Oc2c(NC(=O)NC3CCCCC3)cccc2C(=O)N([C@@H](C)CO)C[C@@H]1C
CC(=O)N1CCCN(S(=O)(=O)N2CCOCC2)CC1
Cc1noc(C)c1NC(=O)N(C)C[C@@H]1OCCCC[C@H](C)Oc2ccc(NS(=O)(=O)c3ccc(F)cc3)cc2C(=O)N([C@@H](C)CO)C[C@@H]1C
COc1ccc(S(=O)(=O)N(C)C[C@@H]2Oc3c(NS(=O)(=O)c4ccccc4)cccc3C(=O)N([C@@H](C)CO)C[C@@H]2C)cc1
C[C@@H]1CN([C@@H](C)CO)C(=O)Cc2cc(NC(=O)NC3CCCCC3)ccc2O[C@H]1CN(C)C(=O)Nc1cccc2ccccc12
COCCNC(=O)C[C@@H]1C[C@H]2c3cc(NC(=O)Nc4ccc(C(F)(F)F)cc4)ccc3O[C@H]2[C@@H](CO)O1
C[C@H](CO)N1C[C@H](C)[C@@H](CN(C)C(=O)Nc2cc(F)ccc2F)Oc2cc(/C=C/c3ccccc3)ccc2S1(=O)=O
O=C(NCC1CC1)c1cc2c(c(-c3cccc(-c4ccccc4F)c3)n1)[C@@H](CCO)N(C(=O)CC1CC1)C2
COc1ccc(S(=O)(=O)N(C)C[C@@H]2OCCCC[C@@H](C)Oc3ccc(NC(=O)Nc4c(C)noc4C)cc3C(=O)N([C@H](C)CO)C[C@@H]2C)cc1
Cc1noc(C)c1NC(=O)N(C)C[C@@H]1Oc2ccc(NS(C)(=O)=O)cc2C(=O)N([C@@H](C)CO)C[C@H]1C
